Assay results as given in PubChem BioAssay AID485294 (National Center for Advancing Translational Sciences (NCATS), 2010).
Out of some 370,000 compounds screened, about 150 (0.041%) were called active. This list was built around the results that the source calls inconclusive (neither active nor inactive); the mix of calls is not that of the screen. Calls follow the shape of the dose curve; as a rule, active = well fitted inhibition curve with a large enough effect; inconclusive = small, poorly fitted or top-dose-only effect; inactive = flat fitted curve, though single readings scatter. Potencies of inconclusive entries are left out as doubtful fits.

These compounds were tested against Beta-lactamase (Escherichia coli (strain K12)) (UniProt P00811) (assay: qHTS Inhibitors of AmpC Beta-Lactamase (assay with detergent)). Settings: AmpC hydrolysis of nitrocefin, absorbance 480 nm, 0.01% Triton; series mostly up to 114 µM.
Method in brief: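 20 mM phosphate pH 7.0 + 0.01% (detergent screen) or 0.0001% Triton X-100; 5.3 nM AmpC reagent; cpd preinc 15 min RT; nitrocefin (800 uM stock) to start; A480 q20 s × 4 min; Activity was normalised to no-enzyme and no-compound control wells.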
Also: nearly all actives have a fitted effect of over 25% in size.
Potency is read from the fitted curve at half-maximal effect; tags tell the direction and shape of the fitted curve.

Chain of UniProt P00811 (P00811 whole entry, looked up): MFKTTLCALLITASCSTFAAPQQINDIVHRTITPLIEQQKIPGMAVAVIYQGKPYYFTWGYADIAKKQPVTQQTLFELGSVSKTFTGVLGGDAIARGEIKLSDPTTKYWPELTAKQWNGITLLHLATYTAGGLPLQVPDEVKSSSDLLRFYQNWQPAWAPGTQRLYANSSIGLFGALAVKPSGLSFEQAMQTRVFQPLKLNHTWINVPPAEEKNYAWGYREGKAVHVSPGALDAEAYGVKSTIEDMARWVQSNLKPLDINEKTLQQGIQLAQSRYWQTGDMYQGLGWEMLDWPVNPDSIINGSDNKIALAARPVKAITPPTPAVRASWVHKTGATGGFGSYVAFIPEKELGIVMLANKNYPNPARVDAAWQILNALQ

Row | Compound | Potency
1 | COc1ccc(Cl)cc1N(CC(=O)N1CCCC1)S(=O)(=O)c1ccc(C)cc1 | inconclusive [inhibitor, full curve, poor fit]
2 | CSc1ncc(C(=O)Nc2ccc(Br)cn2)c(C)n1 | inactive
3 | COc1ccc(C(=O)COc2ccccc2C(=O)Nc2ccccc2)cc1 | inconclusive [inhibitor, full curve, poor fit]
4 | Cc1ccc(NC(=O)N2CCN(c3nnc(C)c4c(C)n(-c5ccccc5)nc34)CC2)c(Cl)c1 | inactive
5 | CCCS(=O)(=O)c1nc(C)cc(C)c1S(C)(=O)=O | inconclusive [inhibitor, full curve]
6 | Cc1cc(C)nc(NC(=NCCc2c[nH]c3ccccc23)NC(=O)Nc2ccccc2)n1 | inconclusive [inhibitor, partial curve, poor fit]
7 | COc1ccc(CNC(=O)CS(=O)(=O)Cc2nc(-c3ccc(OC)cc3)oc2C)cc1 | inconclusive [inhibitor, full curve, poor fit]
8 | CC(C)(C)c1cc(C=C(C#N)C#N)cc(C(C)(C)C)c1O | inconclusive [inhibitor, partial curve]
9 | Cc1cc(C)c(Nc2cc(S(=O)(=O)O)c(N)c3c2C(=O)c2ccccc2C3=O)c(C)c1 | inactive
10 | Cc1cc(Cl)ccc1NC(=O)CSc1nnc(Cc2cccs2)n1Cc1ccco1 | inconclusive [inhibitor, full curve, poor fit]
11 | O=C1NC2(CCCC2)N=C1c1ccc(F)cc1 | inconclusive [inhibitor, full curve, poor fit]
12 | COCCCNC(=O)CCSc1ccc(Cl)cc1 | inconclusive [inhibitor, full curve]
13 | O=C1NC(c2ccc(Br)cc2)Nc2ccccc21 (stereo unspecified) | inconclusive [inhibitor, full curve, poor fit]
14 | COc1ccc(CN2CCCC(N3CCN(c4ccc(OC)cc4)CC3)C2)cc1 (stereo unspecified) | inconclusive [inhibitor, full curve, poor fit]
15 | CC1CCN(C(=O)CSc2nncn2C)CC1 | inconclusive [inhibitor, full curve, poor fit]
16 | CCCC[C@@H]1CNCCN1CCc1cc(C(F)(F)F)cc(C(F)(F)F)c1 | inactive
17 | CS(=O)(=O)N1N=C(c2ccccc2)CC1c1ccc2nccnc2c1 (stereo unspecified) | inconclusive [inhibitor, single point]
18 | Cc1cc(C)c(S(=O)(=O)NCCCn2ccnc2)cc1C | inactive
19 | CC(=O)N(C1=C(Cl)C(=O)c2ccccc2C1=O)C1CCCCC1 | inactive
20 | O=C(c1cnc2n(c1=O)CCS2)N1CCCc2ccccc21 | inconclusive [inhibitor, full curve, poor fit]
21 | COc1ccc(NC2=C(c3ccc(OC)cc3)C(=O)c3ccccc32)cc1 | inactive
22 | Cc1nn(-c2ccccc2)c(C)c1C(=O)OCC(=O)NCc1ccco1 | inactive

Row | Compound | Potency
23 | Fc1cccc(Cl)c1CSc1nnnn1-c1ccc2c(c1)OCO2 | inconclusive [inhibitor, full curve]
24 | O=C1CN(C(=O)COc2ccc(Cl)cc2Cl)C(c2ccc(F)cc2)c2cc(F)ccc2N1 (stereo unspecified) | inactive
25 | c1ccc(C2Nc3cccc4cccc(c34)N2)cc1 | inactive
26 | CS(=O)(=O)N1CCN(C(=O)c2c(F)cccc2F)CC1 | inconclusive [inhibitor, partial curve]
27 | CCc1cccc(NC(=O)c2c(C)oc3ncnc(N4CCCCC4)c23)c1 | inactive
28 | COc1cc(/C=N/NC(=O)c2ccccn2)ccc1OC(=O)c1cccs1 | inconclusive [inhibitor, partial curve, poor fit]
29 | COCCCN1C(=O)C(O)=C(C(C)=O)C1c1cccc(F)c1 (stereo unspecified) | inconclusive [inhibitor, full curve, poor fit]
30 | CCOC(=O)C1=C(C)OC(N)=C(C#N)C1C1CCCCC1 (stereo unspecified) | inconclusive [inhibitor, full curve, poor fit]
31 | CCOC(=O)Cc1csc(NC(=O)Cc2cccs2)n1 | inconclusive [inhibitor, full curve]
32 | Cc1c(Cl)cccc1Nc1nc(N)nc(CSc2ncccn2)n1 | inconclusive [inhibitor, partial curve, poor fit]
33 | CC(C(=O)N1CCc2ccccc21)N1CCN(S(=O)(=O)c2cccc(C(F)(F)F)c2)CC1 (stereo unspecified) | inconclusive [inhibitor, full curve, poor fit]
34 | C1=C(c2ccccc2)Nc2nnnn2C1c1cccs1 (stereo unspecified) | inconclusive [inhibitor, single point]
35 | Cc1cccc(NC(=O)CSc2nnc(-c3ccc(S(=O)(=O)N4CCOCC4)cc3)n2C)c1 | inconclusive [inhibitor, full curve, poor fit]
36 | CCc1n[nH]c(=S)n1/N=C/c1ccc(N(C)c2ccccc2)cc1 | inactive
37 | CCc1ccccc1NC(=O)c1cc(S(=O)(=O)N(C)C)ccc1N1CCCC1 | inactive
38 | Cc1ccc2c(c1)c1c(c(=O)n(-c3cccc(Cl)c3)c(=O)n1C)n2C | inactive
39 | Cc1cc(C(=O)O)ccc1N=Cc1c(O)ccc2ccccc12 | inconclusive [inhibitor, full curve, poor fit]
40 | COc1ccc(OC)c(NC(=O)COC(=O)CCCN2C(=O)c3ccccc3C2=O)c1 | inconclusive [inhibitor, single point]
41 | CN(Cc1ccccc1)C(=O)COc1cccnc1[N+](=O)[O-] | inconclusive [inhibitor, partial curve, poor fit]
42 | NC(=O)CSc1nnc(-c2ccncc2)n1CCc1ccccc1 | inconclusive [inhibitor, full curve]
43 | Cc1ccc(C2NNC(=O)C2NC(=O)c2ccccc2)cc1 (stereo unspecified) | inconclusive [inhibitor, full curve, poor fit]
44 | O=Cc1ccc(-c2nc3ccccc3s2)o1 | inactive

Row | Compound | Potency
45 | CCCn1nc(C(=O)NNC(=O)CCCOc2ccc(C)cc2)c2ccccc2c1=O | inconclusive [inhibitor, partial curve, poor fit]
46 | CCN1C(=NCC(C)C)N[C@@H](CCc2ccccc2)[C@H](C(=O)NCC(C)C)[C@H]1C | inconclusive [inhibitor, full curve, poor fit]
47 | CC(C)C[C@@H](CC#N)N1CCN(Cc2ccccc2)CCC1=O | inconclusive [inhibitor, full curve, poor fit]
48 | COc1cc(C(=O)Nc2ccccc2N2CCOCC2)ccc1OCc1c(C)noc1C | inconclusive [inhibitor, partial curve, poor fit]
49 | Oc1ccccc1N1CCN(C(=S)NCCc2ccccc2)CC1 | inactive
50 | COC(=O)c1ccsc1NS(=O)(=O)c1ccccc1 | inconclusive [inhibitor, full curve, poor fit]
51 | Cc1cc(NC(=O)CC(CN(C)S(=O)(=O)c2ccccc2)c2ccccc2)no1 (stereo unspecified) | inconclusive [inhibitor, full curve, poor fit]
52 | CC(/C=N/NC(=O)c1ccc2nc(C)[nH]c2c1)=C\c1ccccc1 | inconclusive [inhibitor, full curve, poor fit]
53 | O=C1CSC(=O)N1CC(O)COc1ccc(Cl)cc1 (stereo unspecified) | inactive
54 | Cc1cccc(/C(N)=N/OC(=O)CCC2CCCCC2)c1 | inconclusive [inhibitor, partial curve, poor fit]
55 | O=C(O)CCCCn1c(SCc2cc(=O)n3cc(Cl)ccc3n2)nc2ccsc2c1=O | inconclusive [inhibitor, full curve, poor fit]
56 | COc1cccc2sc(Nc3nnc(-c4ccccc4Cl)o3)nc12 | inconclusive [inhibitor, partial curve, poor fit]
57 | C=C(C)COc1ccc2c(C)c(CC(=O)N3C[C@H]4C[C@@H](C3)c3cccc(=O)n3C4)c(=O)oc2c1C | inconclusive [inhibitor, full curve, poor fit]
58 | CC(=O)NCCC(=O)Nc1sc2c(c1-c1nc3ccccc3[nH]1)CCCC2 | inactive
59 | O=C(CSc1nnc(CNC(=O)c2ccccc2F)o1)NC1CCCC1 | inconclusive [inhibitor, partial curve]
60 | CC(=O)Nc1cccc(-c2nnc(SCC(=O)c3cc([N+](=O)[O-])ccc3Br)o2)c1 | inactive
61 | O=C(CNC(=O)c1ccccc1F)N/N=C/c1cc(Br)ccc1OCc1ccccc1 | inconclusive [inhibitor, full curve, poor fit]
62 | CCn1cc(C(=O)OCC(=O)N(C)C2CCS(=O)(=O)C2)c(=O)c2ccc(C)nc21 (stereo unspecified) | inconclusive [inhibitor, partial curve, poor fit]
63 | Cc1cccc2c1-c1sc(C(=O)NCCCN3CCN(c4cccc(Cl)c4)CC3)cc1CO2 | inconclusive [inhibitor, full curve, poor fit]
64 | COc1ccc(NC(=O)CN(C)CC(=O)NCC(=O)Nc2ccc(F)cc2)cc1 | inconclusive [inhibitor, full curve, poor fit]
65 | CCN(CC)S(=O)(=O)c1ccc(N2CCCC2)c(NS(=O)(=O)c2ccccc2)c1 | inconclusive [inhibitor, full curve, poor fit]
66 | COC(=O)CC1=C(C(=O)OC)C(c2ccc3c(c2Cl)OCO3)C(C#N)=C(N)O1 (stereo unspecified) | inconclusive [inhibitor, partial curve, poor fit]
